From PubChem BioAssay AID588342 (National Center for Advancing Translational Sciences (NCATS), 2011)
The campaign covered roughly 360,000 compounds. About 25,000 (6.9%) were called active. Inconclusive means that the source gave no clear call. Such entries were picked first, then a sample of the others. Calls come from the whole dose curve; as a rule, active = well fitted inhibition curve with a large enough effect; inconclusive = small, poorly fitted or top-dose-only effect; inactive = flat fitted curve, though single readings scatter. Potencies of inconclusive entries are doubtful fits and often do not repeat.
Note: nearly all actives have a fitted effect of over 55% in size.
Potency is the fitted concentration of half-maximal effect; tags give direction and shape of the fitted curve.

The molecules below were run against Luciferin 4-monooxygenase (Photinus pyralis) (UniProt P08659) (assay: qHTS profiling assay for firefly luciferase inhibitor/activator using purifed enzyme and Km concentrations of substrates (counterscreen for miR-21 project)). Details: purified FLuc, luminescence inhibition; series mostly up to 57.5 µM.
Chain of UniProt P08659 (P08659 whole entry, looked up): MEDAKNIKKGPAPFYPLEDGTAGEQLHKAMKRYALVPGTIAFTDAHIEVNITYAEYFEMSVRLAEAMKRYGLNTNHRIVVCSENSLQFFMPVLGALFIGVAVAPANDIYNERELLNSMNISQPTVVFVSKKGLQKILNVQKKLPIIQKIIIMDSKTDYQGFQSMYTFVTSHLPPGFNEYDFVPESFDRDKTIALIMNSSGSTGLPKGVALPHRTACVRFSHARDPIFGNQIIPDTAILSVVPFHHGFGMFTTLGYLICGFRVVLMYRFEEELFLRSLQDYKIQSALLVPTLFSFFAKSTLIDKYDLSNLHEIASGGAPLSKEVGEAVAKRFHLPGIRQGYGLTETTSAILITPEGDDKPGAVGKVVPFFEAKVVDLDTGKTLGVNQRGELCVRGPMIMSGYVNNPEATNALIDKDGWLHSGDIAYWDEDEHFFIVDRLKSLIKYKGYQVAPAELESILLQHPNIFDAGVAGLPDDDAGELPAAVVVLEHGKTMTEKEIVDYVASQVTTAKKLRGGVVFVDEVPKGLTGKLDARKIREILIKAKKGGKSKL
Summary of the method: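 Biochemical qHTS of compounds, final roughly 60 µM downward over six points, against 10 nM purified firefly luciferase using Km concentrations of substrates (10 uM D-luciferin, 10 uM ATP) in Tris acetate pH 7.5 buffer; luminescence output.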
For `Cc1c(-c2ccncc2)oc2ccc(Br)cc2c1=O`, the Potency was inconclusive: 21.3 µM [inhibitor, partial curve, poor fit]. For `COC(=O)c1cc(/C=C/c2ccccc2)on1`, the Potency was inconclusive: 8.49 µM [inhibitor, partial curve]. `O/N=C/c1ccc2ccccc2n1` was tested, and the Potency was inconclusive: 23.9 µM [inhibitor, partial curve]. With `CCOc1ccc(NC(=O)C(=O)NCCc2sc(-c3ccc(C)cc3)nc2C)cc1` the Potency was “inactive”. For `CCOC(=O)c1cccc(Nc2ncnc3ccccc23)c1`, the Potency was inconclusive: 16.9 µM [inhibitor, partial curve]. With `O=C(c1c[nH]c2ccc(S(=O)(=O)Nc3ccccc3F)cc2c1=O)N1CCCCCC1` the Potency was inconclusive: 10.7 µM [inhibitor, partial curve]. `CC1CCN(C2=NC(=O)/C(=C/c3cn(-c4ccccc4)nc3-c3cccc(S(=O)(=O)N(C)C)c3)S2)CC1` was tested, and the Potency was active: 2.69 µM. `COC(=O)c1ccc(-n2c(C)cc(C(=O)COC(=O)CNS(=O)(=O)c3ccc(C)cc3)c2C)cc1` was tested, and the Potency was “inactive”. In the case of `O=C(CCC(=O)Nc1ccccc1)N/N=C/c1ccncc1`, the Potency is reported as active: 12 µM. In the case of `CC1CCCCN1CCCNC(=O)c1sc2ncccc2c1-n1cccc1` (centres undefined), the Potency is reported as “inactive”. In the case of `O=C(CSc1nnc2[nH]c(=O)cc(-c3ccccc3)n12)Nc1ccccc1C(F)(F)F`, the Potency is reported as active: 2.69 µM. With `CCc1nc(N)c(C#N)c(-c2ccco2)c1C` the Potency was “inactive”. With `Cn1c(SCC(=O)c2ccccc2)nnc1-c1cccs1` the Potency was active: 12 µM. For `Cc1cc(OCC(=O)Nc2ccc(C(=O)OC3CCCCC3)cc2)ccc1Cl`, the Potency was “inactive”. For `Cc1ccc(C(=O)COC(=O)c2cccs2)cc1`, the Potency was active: 0.151 µM. `O=C(O)c1cccc(NC(=S)NC(NC(=O)c2ccccc2[N+](=O)[O-])C(Cl)(Cl)Cl)c1` (centres undefined) was tested, and the Potency was inconclusive: 37.9 µM [inhibitor, partial curve, poor fit]. For `CNC(=O)c1cccc(-n2c(C)nc3cccnc32)c1C`, the Potency was “inactive”. In the case of `Cc1ccc(NC(=O)NC2CCCCC2)cc1Cl`, the Potency is reported as inconclusive: 1.35 µM [inhibitor, full curve]. In the case of `CC(=O)c1ccc(NC(=O)CSc2nc3c(=O)n(C)c(=O)n(C)c3n2C)cc1`, the Potency is reported as “inactive”. In the case of `CCc1ccc(OC(=O)c2cncc(Br)c2)cc1`, the Potency is reported as active: 6.01 µM. With `O=C1c2ccccc2C(O)(c2ncc[nH]2)N1CCc1ccccc1` (centres undefined) the Potency was “inactive”. For `N=C1SCC(=O)N1/N=C/c1ccccc1`, the Potency was active: 5.36 µM. In the case of `CCCc1ccc(C(=O)NNc2ccc(F)cc2)cc1`, the Potency is reported as inconclusive: 26.9 µM [inhibitor, single point]. For `O=C(Nc1ccccc1)Nc1ccccc1C(=O)NCC1CC1`, the Potency was active: 15.1 µM. For `Cc1ccc2oc(-c3ccc(NC(=O)c4cccnc4)cc3)nc2c1`, the Potency was active: 6.01 µM. For `CC(=O)Nc1cccc(OCc2c(F)cccc2Cl)c1`, the Potency was inconclusive: 23.9 µM [inhibitor, partial curve, poor fit]. With `CCCOc1ccc(N2C(=O)C3C4C=CC(CC4)C3C2=O)cc1` (centres undefined) the Potency was inconclusive: 37.9 µM [inhibitor, partial curve, poor fit]. With `CCOc1ccc(N(CC(=O)Nc2ccc(OC)cc2)S(C)(=O)=O)cc1` the Potency was inconclusive: 21.3 µM [inhibitor, single point]. With `O=C(Nc1nc(-c2cc3ccccc3oc2=O)cs1)c1ccco1` the Potency was inconclusive: 15.1 µM [inhibitor, partial curve, poor fit]. For `CCOc1cccc(C(=O)NC(=S)Nc2ccccc2)c1`, the Potency was active: 6.75 µM. `COc1ccc(CCNC(=O)c2cc3c(=O)n4ccccc4nc3n2C)cc1` was tested, and the Potency was “inactive”. In the case of `O=C(Nc1nnc(-c2ccc3c(c2)OCCO3)o1)C1CCCCC1`, the Potency is reported as inconclusive: 2.69 µM [inhibitor, full curve]. With `Oc1c(/C=C/C=C/C=Nc2ccccc2)sc(=S)n1Cc1ccccc1` the Potency was inconclusive: 9.53 µM [inhibitor, partial curve]. With `CCOC(=O)c1csc(NC(=O)c2ccc(OC)c(OC)c2)n1` the Potency was “inactive”. For `S=C(NCc1ccccn1)Nc1ccc(Cl)c(Cl)c1`, the Potency was inconclusive: 30.1 µM [inhibitor, partial curve, poor fit]. With `Cc1ccc(OCCSc2cc(C)nc(N)n2)cc1` the Potency was inconclusive: 26.9 µM [inhibitor, single point]. `Cc1ccc(NCc2cccnc2)c(Br)c1` was tested, and the Potency was inconclusive: 26.9 µM [inhibitor, single point]. With `COc1ccc(OC)c(NC(=O)CC2Oc3ccccc3NC2=O)c1` (centres undefined) the Potency was inconclusive: 37.9 µM [inhibitor, partial curve, poor fit]. With `Cc1cc(C)c2nc(N3CCCC(C(=O)NCCN4CCOCC4)C3)sc2c1` (centres undefined) the Potency was active: 13.5 µM. `c1ccc(CCNc2ncnc3sccc23)nc1` was tested, and the Potency was inconclusive: 23.9 µM [inhibitor, partial curve]. With `CSc1ncc2c(=O)[nH]c(-c3ccccc3)nc2n1` the Potency was inconclusive: 37.9 µM [inhibitor, single point]. In the case of `COC(=O)C1=C(O)/C(=C\c2cc(C)n(-c3ccccc3C)c2C)N=C1C`, the Potency is reported as active: 1.07 µM. In the case of `Cc1cc(C(=O)N/N=C/c2ccc(N(C)C)cc2)c2ccccc2n1`, the Potency is reported as inconclusive: 30.1 µM [inhibitor, partial curve, poor fit]. In the case of `O=S(=O)(Cc1ccccc1Cl)CC(O)COc1ccccc1Cl` (centres undefined), the Potency is reported as inconclusive: 26.9 µM [inhibitor, partial curve, poor fit]. For `O=C(Nc1ccc(CN2CCOCC2)cc1)c1cccc(F)c1`, the Potency was active: 9.53 µM. With `C/C(=N\Nc1ccc(F)cc1)c1ccncc1` the Potency was inconclusive: 26.9 µM [inhibitor, partial curve, poor fit]. With `CCn1c2ccccc2c2cc(NC(=O)C(=O)N3CCOCC3)ccc21` the Potency was inconclusive: 23.9 µM [inhibitor, single point]. For `CCOc1ccc2[nH]c3c(NCCC(C)C)ncnc3c2c1`, the Potency was inconclusive: 26.9 µM [inhibitor, partial curve, poor fit]. In the case of `CN(C)c1ccc(C(=O)Nc2nnc(C3=COCCO3)o2)cc1`, the Potency is reported as “inactive”.
